# Experimental data: patent US10933169B2, “Bone morphogenetic protein pathway activation, compositions for ossification, and methods related thereto” (Emory University, priority 2012, dated 2021)
# Tested on: BMP-induced ALP activity in C2C12 cells
# Assay: BMP-induced alkaline phosphatase (ALP) potentiation assay in C2C12 cells
# Conditions: sub-optimal doses of BMP in the presence or absence of exogenously added noggin, relative to BMP alone control
row,Molecule,Fold-increase of BMP-induced ALP (over BMP alone control) [fold]
1,"5-Methylbenzo[c]phenanthridin-5-ium-2,3,8,9-tetrol",2.0
2,c1ccc(-n2nnnc2-c2cccc3ccccc23)cc1 [5-(Naphthalen-1-yl)-1-phenyl-1h-tetrazole],2.5
3,"O=[N+]([O-])C1C(c2ccccc2)C12c1ccccc1-c1ccccc12 (centres unmarked) [2-Nitro-3-phenylspiro[cyclopropane-1,9′-fluorene]]",4.0
4,Cc1ccc(NCCN(C)C)c2c(=O)c3cc(O)ccc3sc12.I [1-[[2-(Dimethylamino)ethyl]amino]-7-hydroxy-4-methyl-9H-thioxanthen-9-one monohydriodide],3.0
5,"COC(=O)c1c[nH]c2c1-c1cc(C(=O)OCc3ccccc3)n(S(=O)(=O)c3ccc(C)cc3)c1C(=O)C2=O [2-O-Benzyl 8-O-methyl 3-(4-methylphenyl)sulfonyl-4,5-dioxo-6H-pyrrolo[3,2-e]indole-2,8-dicarboxylate]",3.0
